The campaign covered roughly 50,000 compounds. About 800 (1.6%) showed an effect of 50% or more. Some of the results follow.

This assay addresses Bcl-2-like protein 10 (Homo sapiens) (UniProt Q9HD36). Description: Phenotype converters, Bcl-B/TR3 peptide binding displacement, primary biochemical FP (AID 1240).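 Further: 0% = Bcl-B with tracer peptide and DMSO and 100% = tracer peptide lacking Bcl-B.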 To be noted: GST-Bcl-B / FITC-TR3 peptide fluorescence polarization; stronger effect = higher value; compound at 3.75 mg/L. (Fluorescence polarisation rises when a labelled molecule tumbles more slowly, as on binding a larger partner.)
Sequence of UniProt Q9HD36 (Q9HD36 whole entry, looked up): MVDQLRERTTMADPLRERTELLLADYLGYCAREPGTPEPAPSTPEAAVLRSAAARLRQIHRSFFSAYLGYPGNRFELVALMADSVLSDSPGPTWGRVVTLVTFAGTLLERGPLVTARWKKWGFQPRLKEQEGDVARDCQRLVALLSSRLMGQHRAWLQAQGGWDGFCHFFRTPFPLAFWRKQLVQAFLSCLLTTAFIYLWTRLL
With `Cc1cccc(NC(=O)CSC(N)=O)c1C`, the displacement is -3.9%.
On to `CCN(CC)c1ccc(/C=N/Nc2ccccc2[N+](=O)[O-])c(O)c1`, for which the displacement is -1.7%.
For the molecule `C=CCC(C(=O)c1ccccc1)C(=O)C(C)(C)OC` (centres undefined), the displacement came to 4.9%.
The value for `O=C(COc1ccc(Br)cc1)Nc1ccc(Cl)cc1Cl` was 7.1%; that for `CCOC(=O)Oc1ccc2c(=O)c(-c3ccccc3OC)coc2c1` was 14.5%; that for `O=C(Cc1ccc(Cl)cc1)Nc1ccc2c(c1)OCCO2` was 0.4%.
Turning to `Cc1sc(NN=C2CCCC2)nc1-c1ccccc1`, the displacement was -27.4%.
As for `O=C1NC(=S)S/C1=C/c1cc(Cl)ccc1OCc1ccccc1`, the displacement was -15.6%.
Take `CCN(c1ccccc1)S(=O)(=O)c1ccc(F)cc1`: the displacement is -6.1%.
Take `Cc1ccc(CO/N=C(\N)c2nonc2N)c(C)c1`: the displacement amounted to 10.6%.
The value for `COc1cc(/C=C2\C(=O)N(c3ccc(S(N)(=O)=O)cc3)N=C2C)cc(I)c1O` was 11%.
As for `Cc1ccc(NC(=O)C(c2ccccc2)c2ccccc2)cc1`, the displacement is -6.3%.
The value for `Cc1occc1C(=O)Nc1sc2c(c1C#N)CCC(C)C2` (centres undefined) was 47.3%; that for `COc1cc(/C=N/N2C(=O)CSC2=S)cc(Cl)c1OCCOc1ccc(Br)cc1` was 12.9%; that for `COC(=O)C1=C(C)NC2=C(C(=O)CCC2)C1c1cccc(F)c1` (centres undefined) was 8.9%.
In the case of `CC(C)OC(=O)C(C)Sc1n[nH]c(=O)[nH]c1=O` (centres undefined), the displacement is 1.6%.
With `CCc1cc(C(=O)N/N=C/c2ccccc2)c2ccccc2n1`, the displacement is -6.7%.
For the molecule `O=C(COc1ccccc1)Nc1ccc(S(=O)(=O)N2CCOCC2)cc1`, the displacement was determined as 0.4%.
For `CC(=O)Nc1ccc(NC(=O)Cc2ccc(Cl)cc2)cc1`, the displacement was -13%.
As to `CCCCc1nc2ccccc2c(NC(=O)CN2CCOCC2)c1CCC`, the displacement was -9.5%.
Regarding `CC(C)Cc1ccc(/C(CCCC(=O)O)=N\O)s1`, the displacement stood at 4.5%.
Regarding `CCOC(=O)C(CC(C)C)NC(=O)/C(=C\c1ccccc1F)NC(=O)c1ccccc1` (centres undefined), the displacement amounted to 14.5%.
Regarding `O=C(CSc1nc2ccccc2[nH]1)N/N=C/c1ccccc1Br`, the displacement is 5.9%.
For `C=CCSc1nc2sc3c(c2c(=O)n1-c1ccccc1)CCc1ccccc1-3`, the displacement is -1.3%.
On to `COc1ccc(S(=O)(=O)N2CCN(C/C=C/c3ccccc3)CC2)cc1[N+](=O)[O-]`, for which the displacement was -9.7%.
In the case of `O=P(c1ccccc1)(c1ccccc1)c1ccccc1O`, the displacement came to 2.7%.
The value for `Cc1cc(N2CCN(C(c3ccccc3)c3ccccc3)CC2)nc2ccccc12` was 10.3%; that for `CC(=O)N1C(=O)/C(=C\C(=O)c2ccc([N+](=O)[O-])cc2)c2ccccc21` was 0.8%; that for `O=C(Nc1ccc(F)cc1)C(=O)NC1CC1` was -4.4%.
For `CCOC(=O)c1ccccc1NC(=O)CN(c1cccc(Br)c1)S(=O)(=O)c1ccccc1`, the displacement was 6.1%.
On to `COc1ccc(NC(=O)c2ccc(CSc3ccc(Br)cc3)cc2)cc1`, for which the displacement was determined as 8.3%.
The value for `COc1ccc(OCC(=O)Nc2ccc(I)cc2C)cc1` was 15.2%; that for `CCOc1c(I)cc(/C=C2\C(=O)NC(=O)N(c3ccc(OC)cc3)C2=O)cc1OC` was -7.8%; that for `COc1cc(C2NC(=O)NC(C)=C2C(=O)Nc2ccc(Br)cc2)cc(OC)c1OC` (centres undefined) was -3%.
Take `O=C(Nc1ccc(Br)cn1)c1cccc(Cl)c1`: the displacement was -10.4%.
The value for `COc1ccc(OC)c(NC(=O)c2ccccc2CCc2ccccc2)c1` was 9.3%; that for `O=C1NN(c2ccc(Cl)c(Cl)c2)C(=O)/C1=C/c1cccc(Br)c1` was -4.7%; that for `Cc1ccc(/C=N\Nc2nc(N3CCCCC3)nc(N3CCCCC3)n2)o1` was 14.2%.
As for `CC1(C)C(c2cccs2)=[N+]([O-])C2(CCCCCC2=O)N1O` (centres undefined), the displacement was -3.2%.
The result for `O=C(Nc1ccc(Cl)cc1)c1ccccc1[N+](=O)[O-]` reads 2.5%; that for `CCC(=O)Nc1cccc(-c2nc3ccccc3s2)c1C`, 2.3%; that for `Cc1ccccc1OCCc1c(C)n[nH]c1C`, 11.6%.
The value for `O=c1/c(=C/c2ccccn2)sc2nc3ccccc3n12` was 102%; that for `CC(=O)C1=C(O)C(=O)N(CC2CCCO2)C1c1ccc(F)cc1` (centres undefined) was -1%; that for `CCOC(=O)c1ccccc1NC(=O)CN(c1ccc(C)cc1)S(=O)(=O)c1ccc(OCC)cc1` was 11.4%.
With `O=C(O)c1ccc(NC(=O)c2ccc(Cl)c([N+](=O)[O-])c2)cc1`, the displacement stood at 46.2%.
On to `COc1c2ccoc2nc2c(OC)c(OCC(O)C(C)(C)O)ccc12` (centres undefined), for which the displacement is -5.7%.
On to `O=C(Nc1nccs1)c1cccc(N2C(=O)c3ccccc3C2=O)c1`, for which the displacement amounted to 21.6%.
On to `O=C(O)Cc1ccc(NC(=O)C2CC=CCC2C(=O)O)cc1` (centres undefined), for which the displacement was -9.8%.
Regarding `Cc1sc(NC(=O)c2ccc(F)cc2)nc1C12CC3CC(CC(C3)C1)C2`, the displacement was 14.7%.
Take `CC(=O)c1cccc(Nc2ncnc3ccc(Br)cc23)c1`: the displacement stood at 13.7%.
Take `CCOC(=O)c1ccc(NC(=O)Nc2nc(-c3ccccc3)cs2)cc1`: the displacement was 10.9%.
The value for `O=C(N/N=C/c1ccc(Sc2cccc3cccnc23)o1)c1cccc(F)c1` was -37.2%.
The value for `O=C1NN(c2ccc(Cl)c(Cl)c2)C(=O)/C1=C/c1ccc(Cl)c([N+](=O)[O-])c1` was 34.5%.
As to `Cc1ccc2nc(N3CCOCC3)c(C=O)c(=O)n2c1`, the displacement is -2.4%.
Regarding `COc1ccc(NCN2C(=O)CSC2=O)cc1Cl`, the displacement amounted to 17.8%.
As to `O=C(O)c1cccc([N+](=O)[O-])c1C(=O)Nc1nc2c(s1)CCCC2`, the displacement was -5.1%.
The value for `CCC(=O)N(CCC1(c2ccc(F)cc2)CCOC(C)(C)C1)Cc1ccc(OC)c(OC)c1` (centres undefined) was 8.8%; that for `Cc1ccc(N2C(=O)C3C4CC(=O)C(c5ccccc54)C3C2=O)cc1` (centres undefined) was 3.5%.
As for `COCCNC(=O)COc1ccc2ccccc2c1`, the displacement was -6%.
`CC1CN=C(NC(=S)Nc2ccccc2)S1` (centres undefined): the displacement was 6.9%.
Take `CC(C(=O)N1CCc2ccccc2C1)N1C(=O)c2ccccc2C1=O` (centres undefined): the displacement was 14.8%.
As for `CCC(=O)c1ccc(N2CCN(C(=O)c3cccc(F)c3)CC2)c(F)c1`, the displacement is -15.1%.
Regarding `Cc1cc(C)cc(-n2c(C)cc(/C=C3\NC(=O)NC3=O)c2C)c1`, the displacement came out at 8.7%.
On to `O=S(=O)(Cc1ccccc1)CC(O)COCc1ccc(Cl)cc1` (centres undefined), for which the displacement is -4.5%.
As to `CCOC(=O)C12CC3CC(CC(C3)C1)C2`, the displacement is -12.2%.
The result for `NC(=O)c1cc(NC(=O)C(c2ccccc2)c2ccccc2)ccc1Cl` reads 11.4%; that for `C/C(=N\Nc1nc(-c2ccc(C)cc2)nc2ccccc12)c1ccc(N)cc1`, 4.2%.
Take `COc1cc(/C=N/NC(=O)CCN2CCCCC2)ccc1O`: the displacement was -12.9%.
As for `Cc1onc(-c2c(Cl)cccc2Cl)c1C(=O)Nc1ccc(Cl)cc1Cl`, the displacement was -1.3%.
Take `O=c1c2cnn(-c3ccccc3)c2nc(-c2ccccc2)n1-c1ccc(Br)cc1`: the displacement was 9.3%.
With `O=C(c1ccc([N+](=O)[O-])cc1)N1CCN(C(=O)c2cccs2)CC1`, the displacement stood at 2.6%.
On to `Cc1ccc(C(=O)C[n+]2cccc(C(N)=O)c2)cc1[N+](=O)[O-]`, for which the displacement is 20.9%.
Regarding `O=C(N/N=C/c1cc(I)cc(I)c1O)C(O)c1ccccc1` (centres undefined), the displacement stood at 8.2%.
With `O=C(Nc1ccccc1)c1ccc2ccccc2n1`, the displacement came out at 6.8%.
`O=C(NCc1ccncc1)/C(=C/c1ccc(F)cc1)NC(=O)c1ccccc1`: the displacement amounted to 5.2%.
`CCN(CC)c1ccc(NC(=O)/C(=C\c2ccccc2)NC(C)=O)cc1`: the displacement came out at 0.9%.
Consider `Cc1ccc(N2C(=O)CC(Sc3nc4ccccc4s3)C2=O)cc1C` (centres undefined), for which the displacement is -14.4%.
`C[n+]1cccc(C(=O)NCCOC(=O)c2ccccc2)c1`: the displacement was found to be 6.1%.
As for `O=C(Cc1ccccc1)Nc1ccc(Cl)c(-c2nc3ncccc3o2)c1`, the displacement was 7.3%.
The result for `O=C(Nc1ccc(C(=O)N2CCOCC2)cc1)c1ccccc1Cl` reads -2.5%; that for `COc1ccc(OCC(=O)Nc2ccc3ccccc3c2)cc1`, -1%.
For the molecule `O=[N+]([O-])c1ccc(C2Nc3ccc([N+](=O)[O-])cc3C3C=CCC32)cc1` (centres undefined), the displacement came out at 5%.
Regarding `O=C(O)c1ccc(-c2c(Cl)cc([N+](=O)[O-])cc2Cl)o1`, the displacement came to 4.5%.
As for `CCOC(=O)/C(C#N)=C\c1cccc([N+](=O)[O-])c1`, the displacement was determined as 13.5%.
As for `Cc1cc(Nc2ccc(Br)cc2)nc2ccccc12`, the displacement was -0.3%.
The result for `NCCCNc1ccccc1[N+](=O)[O-]` reads 10.2%; that for `O=C(CN(Cc1ccccc1)S(=O)(=O)c1ccccc1)Nc1ccc(Cl)cc1Cl`, 9.3%.
Regarding `O=C(c1ccc(F)cc1)N1CCN(Cc2ccco2)CC1`, the displacement stood at 6.5%.
In the case of `Cc1ccc2oc(-c3cc(NC(=O)COc4ccc(Cl)cc4C)ccc3O)nc2c1`, the displacement came out at 6.5%.
Consider `C=CCNC(=O)CN(c1cc(Cl)cc(Cl)c1)S(C)(=O)=O`, for which the displacement is -2%.
The result for `O=C(O)/C=C/C(=O)OCCCCCCOC(=O)/C=C/C(=O)OCCCCCCO` reads -3%; that for `N/C(=N\OC(=O)c1ccc(Cl)cc1)c1ccccn1`, -11.4%; that for `CCN(CC)C(=O)c1sc(N)c(C(=O)OC(C)C)c1C`, -2%.
For the molecule `COc1ccc(OC)c(NC(=O)c2ccc(C)o2)c1`, the displacement amounted to 2.8%.
The value for `O=C(Nc1ccc2ccccc2c1)c1ccc(Cl)c(Cl)c1` was -6.1%.
For `COc1cc(Cc2ccc(NC(=O)C(F)(F)F)c(OC)c2)ccc1NC(=O)C(F)(F)F`, the displacement is 5.6%.
For the molecule `Cc1ccc(S(=O)(=O)C(CC(=O)c2ccccc2)c2cccs2)cc1` (centres undefined), the displacement turned out to be 8%.
In the case of `Cc1cc(Cl)ccc1OC(=O)/C=C/c1cccc([N+](=O)[O-])c1`, the displacement was found to be 5.6%.
As to `O=C(Nc1ccc(Cl)cn1)c1cccc(F)c1`, the displacement was -0.7%.
On to `CCCOc1ccc(C(=O)Nc2ccccc2-c2ccccc2)cc1`, for which the displacement was found to be 0%.
Take `COc1ccc(Cl)cc1NC(=O)C1CCCO1` (centres undefined): the displacement was -5.6%.
The value for `CCOc1ccc(C(O)c2cnc(CC)n2C)cc1` (centres undefined) was 1.9%.
With `Clc1ccc(/C=C/C=Nc2ccc(-c3nc4ccccc4o3)cc2)cc1`, the displacement was -1.7%.
For the molecule `C#CCSc1nc2ccc([N+](=O)[O-])cc2s1`, the displacement came out at 2%.
As for `COc1ccc(-c2csc(NC(C)=O)c2C(=O)O)cc1`, the displacement was found to be 11.7%.
In the case of `Cc1ccc(N2NC(=O)/C(=C/C=C/c3ccccc3)C2=O)cc1C`, the displacement was 8.4%.
Turning to `COc1cccc(NC(=O)C2C3/C=C\CCCCC32)c1` (centres undefined), the displacement was -4.6%.
On to `COc1ccc(C2=CC=C(c3ccc(OC)cc3)C2)cc1`, for which the displacement stood at 13.6%.
The result for `Cc1ccc(-c2cc(C(=O)N/N=C/c3c(Cl)cccc3Cl)[nH]n2)cc1` reads -2.6%.
The result for `Nc1nnc(-c2ccc(C(=O)O)cc2)s1` reads 1.4%.
With `COc1ccccc1OCCSc1nc2ccccc2n1CCC(=O)O`, the displacement was -9.8%.
As for `O=C1c2ccccc2C(=O)N1CCc1nc2ccccc2c(=O)n1-c1ccccn1`, the displacement came out at 13.4%.
For `COc1cc(/C=C2\SC(=S)NC2=O)ccc1Oc1ccc([N+](=O)[O-])cn1`, the displacement was 20.6%.
